{"source": "the RNAGym collection of RNA variant scans (doi:10.1073/pnas.2313332121)", "parents": {"B1": {"name": "TPR 5TU (parent)", "chain": "GGAUCUUCUCGAUCUAACAAAAAAGACAAAUCUGCCACAAAGCUUGAGAGCAUCUUCGGAUGCAGAGGCGGCAGCCUUCGGUGGCGCGAUAGCGCCAACGUUCUCAACUAUGACACGCAAAACGCGUGCUCCGUUGAAUGGAGUUUAUCAUG"}}, "note": "This sample is rich in variants without activity.", "data": [{"variants_of": "B1", "test": "polymerase ribozyme fitness, log enrichment relative to wild type (log ratio); higher = more active; in vitro selection for triplet polymerase activity", "method_in_brief": "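In triplicate, a single round of in vitro selection was run on each mutant library, PCR-built and transcribed, covering one subunit of a heterodimeric triplet polymerase ribozyme. Frozen incubation at −7 °C followed annealing with a biotinylated primer, partner subunit and triplets, and extended constructs were then gel-excised, streptavidin-captured and taken through RT-PCR. Fitness is the logarithm of genotype enrichment over wild-type enrichment, from inverse-variance-weighted replicate averages of Illumina-sequenced inputs and outputs. […] only genotypes with ≥10 input reads and ≥1 read per output were kept.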", "values": [{"variant": "GGAUCUUCUCGAUCUAACAAAAAAGACAAAACUGCCACAAAGCUUGAGAGCAUCUUCGGAUGCAGAGGCGGCAGGGUUCGGUGGCGCGAUAGCGCAAACGUUCUCAACUAUGACACGCAAAACGCGUGCUCCGUUGAAUGGAGUGUAUCAUG", "note": "[U31A C75G C76G C96A U145G]", "polymerase ribozyme fitness (log ratio)": "≤ -4.2"}, {"variant": "GGAUCUUCUCGAUCUAACAAAAAAGACAAAACUGCCACAAAGCUUGAGAGCAUCUUCGGAUGCAGAGGCGGCAGCUUUCGGUGGCGCGAUAGCGCCAACGUUCUCAACUAUGACACGCAAAACUCGUGCUCCGUUGAACGGAGUCUAUCAUG", "note": "[U31A C76U G124U U139C U145C]", "polymerase ribozyme fitness (log ratio)": "≤ -4.2"}, {"variant": "GGAUCUUCUCGAUCUAACAAAAAAGACAAAACUGCCACAAAGCUUGAGAGCAUCUUCGGAUGCAGAGGCGGCAGCCUUCGGUGGCGCGAUAGCGCUAAAGUUCUCAACUAUGACACGCAAAACGCGUGCUCCGUUGAAUGGAGUUUAUCAUG", "note": "[U31A C96U C99A]", "polymerase ribozyme fitness (log ratio)": -1.23}, {"variant": "GGAUCUUCUCGAUCUAACAAAAAAGACAAACCUGCCCCAAAGCUUGAGAGCAUCUUCGGAUGCAGACUCGGCAGCCUUCGGUGGCACGAUAGCGCCAACGUUCUCAACUAUGACACGCAAAACGCGUGCUCCGUUGAAUGGAGCUUAUCAUG", "note": "[U31C A37C G67C G68U G86A U144C]", "polymerase ribozyme fitness (log ratio)": "≤ -4.2"}, {"variant": "GGAUCUUCUCGAUCUAACAAAAAAGACAAAACUGCCACAAAGCUUGAGAGCAUCUUCGGAUGCAGAGGCGGCAGCGUUCGGUGGUGCGCUAGCGCCAACGUUCUCAACUAUGACACGCAAAACGCGUGCUCCGUUGAAGGGAGUUUAUCAUG", "note": "[U31A C76G C85U A89C U139G]", "polymerase ribozyme fitness (log ratio)": "≤ -4.2"}, {"variant": "GGAUCUUCUCGAUCUAACAAAAAAGACAAACCUGCCCCAAAGCUUGAGCGCAUCUCCGGAUGCAGAGGCGGCAGCCUUCGGUGGUGCGAUAGCGCCAACGUUCUCAACUAUGACACGCAAAACGCGUGCUCCGUUGAAUGGAGUUUAUCAUG", "note": "[U31C A37C A49C U56C C85U]", "polymerase ribozyme fitness (log ratio)": "≤ -4.2"}, {"variant": "GGAUCUUCUCGAUCUAACAAAAAAGACAAACCUGCCACAACGCUUGAGAGCAUCUUCGGAUGCAGAGGCGGCAGCCUUCGGUGGCGCGAUCGCGGCAACGUUCUCAACUAUGACACGCAAAACGCGUGCUCCGUUGAAAGGACUUUAUCAUG", "note": "[U31C A41C A91C C95G U139A G143C]", "polymerase ribozyme fitness (log ratio)": "≤ -4.2"}, {"variant": "GGAUCUUCUCGAUCUAACAAAAAAGACAAACCUGCCACAAAGCUUGAGCGCCUCUUCGGAUGCAGCGGCGGCAGCCUUCGGUGGCGCGAUAGCGCCAACGUUCUCAACUAUGACACGCAAAACGCGUGCUCCGUUGAAUGGACUUUAGCAUG", "note": "[U31C A49C A52C A66C G143C U148G]", "polymerase ribozyme fitness (log ratio)": "≤ -4.2"}, {"variant": "GGAUCUUCUCGAUCUAACAAAAAAGACAAAACUGCCACAAAGCUUGAGAGCAUCUUCGGAUGCAGAUGCGGCAGCCUUCGGAGGUGCGAUAGCGCCAACGUUCUUAACUAUGACAUGCAAAACGCGUGCUCCGUUGAAUGGAGCUUAUCAUG", "note": "[U31A G67U U82A C85U C105U C116U U144C]", "polymerase ribozyme fitness (log ratio)": "≤ -4.2"}, {"variant": "GGAUCUUCUCGAUCUAACAAAAAAGACAAAACUGCCACAAAGAUUGAGAGCAACUUCGGAUGCAGAGGCGGCAGCCUUCGGUAGCGCGAUAGCGCCCACGUUCUCAACUAUGACACGCAAAACGCGUGCUCCGUUGAAUGGAGUUUAUCGUG", "note": "[U31A C43A U53A G83A A97C A150G]", "polymerase ribozyme fitness (log ratio)": "≤ -4.2"}, {"variant": "GGAUCUUCUCGAUCUAACAAAAAAGACAAACCUGCCACAAAGCUUGAGAGCCUCUACGGAUGCAGAGGCGGCAGCCUUCGGCGGCGCGAUAGCGCCAACGUUCUCAUCUAUGACACGCAAAACGCGUGCUCCGUUGAAUGGAGUUUAUCAUG", "note": "[U31C A52C U56A U82C A107U]", "polymerase ribozyme fitness (log ratio)": "≤ -4.2"}, {"variant": "GGAUCUUCUCGAUCUAACAAAAAAGACAAAACUGCCACAAAGCUUGAGAGCAUCUACGGAUGCAGAGGCCGCAGCCUUCGGUGGCGCGAUAGCCCCAACGUUCUCAACUAUGACACGCAAAACGCGUGCGCCGUUGAAUGGAGUUUAUCAUG", "note": "[U31A U56A G70C G94C U130G]", "polymerase ribozyme fitness (log ratio)": "≤ -4.2"}, {"variant": "GGAUCUUCUCGAUCUAACAAAAAAGACAAACCUGCCACAAAGCUUGCGAGCCUCUUCGGAUGCAGAGACGGCAGCCUUCGGUGGCGCGAUAGCGGCAACGUUCUCAACUAUGACACGCAAAACGCGUGCUCCGUUGAAUGGAGUUUAUCAUG", "note": "[U31C A47C A52C G68A C95G]", "polymerase ribozyme fitness (log ratio)": "≤ -4.2"}, {"variant": "GGAUCUUCUCGAUCUAACAAAAAAGACAAAACUGCCACAAAGCUUGAGAGCAUCUUCUGAUGCAGAGGCGGCAGCCUUCGUUGGCGCGAUAGAGCCAACGUUCUCAAGUAUGACACGCAAAACGCGUGCUCCGUAGAAUGGAGUUUAUCAUG", "note": "[U31A G58U G81U C93A C108G U135A]", "polymerase ribozyme fitness (log ratio)": "≤ -4.2"}, {"variant": "GGAUCUUCUCGAUCUAACAAAAAAGACAAAACCGCCACAAAGCUUGAGAGCAUCAUCGGAUGCAGAGGCGGCAGCCUUCGGUGGCGCGAUAGCGCCAUCGUUCUCCACUAUGACACGAAAAACGCGUGCUCCGUUGAAUGGAGUUGAUCAUG", "note": "[U31A U33C U55A A98U A106C C118A U146G]", "polymerase ribozyme fitness (log ratio)": "≤ -4.2"}, {"variant": "GGAUCUUCUCGAUCUAACAAAAAAGACAAACCUGCCACAAAGCUUGAGAGCAUCUUCGGAUGCAGAGGCGGCAGCCUUCGGUGGCGCGAUAGCGCCAUCGUUCUCAACUAUGACACGCAAAACGCGUGCUCCGAUGAAUGGAGUUUAUCAUG", "note": "[U31C A98U U134A]", "polymerase ribozyme fitness (log ratio)": -1.41}, {"variant": "GGAUCUUCUCGAUCUAACAAAAAAGACAAAACUGCCACAAAGCUUGAGAGCAUCUUCGGAUGCAGAGGCGGCAGCCUUCGGUGGCGCGAUAGCGCCAACGUUCUCAACUAUGACACGCAAAACGCGUGCUCCGAUGAAUGGAGUUUAUCAUG", "note": "[U31A U134A]", "polymerase ribozyme fitness (log ratio)": -1.82}, {"variant": "GGAUCUUCUCGAUCUAACAAAAAAGACAAAACUGCCACAAAGCAUGAGCGCAUCUUCAGAUGCAGAGGCGGCAGGCUUCGGUGGCGCGAUAGCGCCAACGUUCUCAUCUAUGACACGCAAAACGCGUGCUCCGUUGAAUGGAGUUUAUCAUG", "note": "[U31A U44A A49C G58A C75G A107U]", "polymerase ribozyme fitness (log ratio)": "≤ -4.2"}, {"variant": "GGAUCUUCUCGAUCUAACAAAAAAGACAAAACUGCCACAAAGCUUGAGAGCAUCUGCGGAUGCAGAGGAGGCAGCCUUCGGUGGCGCGAUAGGGCCAACGUUAUAAACUAUGACACGCAAAACGCGUGCUCCGUUGAAUGGAGCUUAGCAUG", "note": "[U31A U56G C69A C93G C103A C105A U144C U148G]", "polymerase ribozyme fitness (log ratio)": "≤ -4.2"}]}]}
